# Measured values from publication PMC4336329 (PLoS ONE, 2015).
# In all, about 310,000 compounds went through this assay and about 14,000 (4.5%) showed an effect of 50% or more. The effect is printed as a negative number. The list shows a part of the results.
# Target: human ether-à-go-go-related gene (hERG) potassium channel (human, UniProt Q12809)
# Test: primary screen, population patch clamp on CHO cells stably expressing hERG
# 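Also: peak tail current of the secondary pulse compared with the same well before compound.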
# Sequence of human ether-à-go-go-related gene (hERG) potassium channel (Q12809 whole entry, looked up): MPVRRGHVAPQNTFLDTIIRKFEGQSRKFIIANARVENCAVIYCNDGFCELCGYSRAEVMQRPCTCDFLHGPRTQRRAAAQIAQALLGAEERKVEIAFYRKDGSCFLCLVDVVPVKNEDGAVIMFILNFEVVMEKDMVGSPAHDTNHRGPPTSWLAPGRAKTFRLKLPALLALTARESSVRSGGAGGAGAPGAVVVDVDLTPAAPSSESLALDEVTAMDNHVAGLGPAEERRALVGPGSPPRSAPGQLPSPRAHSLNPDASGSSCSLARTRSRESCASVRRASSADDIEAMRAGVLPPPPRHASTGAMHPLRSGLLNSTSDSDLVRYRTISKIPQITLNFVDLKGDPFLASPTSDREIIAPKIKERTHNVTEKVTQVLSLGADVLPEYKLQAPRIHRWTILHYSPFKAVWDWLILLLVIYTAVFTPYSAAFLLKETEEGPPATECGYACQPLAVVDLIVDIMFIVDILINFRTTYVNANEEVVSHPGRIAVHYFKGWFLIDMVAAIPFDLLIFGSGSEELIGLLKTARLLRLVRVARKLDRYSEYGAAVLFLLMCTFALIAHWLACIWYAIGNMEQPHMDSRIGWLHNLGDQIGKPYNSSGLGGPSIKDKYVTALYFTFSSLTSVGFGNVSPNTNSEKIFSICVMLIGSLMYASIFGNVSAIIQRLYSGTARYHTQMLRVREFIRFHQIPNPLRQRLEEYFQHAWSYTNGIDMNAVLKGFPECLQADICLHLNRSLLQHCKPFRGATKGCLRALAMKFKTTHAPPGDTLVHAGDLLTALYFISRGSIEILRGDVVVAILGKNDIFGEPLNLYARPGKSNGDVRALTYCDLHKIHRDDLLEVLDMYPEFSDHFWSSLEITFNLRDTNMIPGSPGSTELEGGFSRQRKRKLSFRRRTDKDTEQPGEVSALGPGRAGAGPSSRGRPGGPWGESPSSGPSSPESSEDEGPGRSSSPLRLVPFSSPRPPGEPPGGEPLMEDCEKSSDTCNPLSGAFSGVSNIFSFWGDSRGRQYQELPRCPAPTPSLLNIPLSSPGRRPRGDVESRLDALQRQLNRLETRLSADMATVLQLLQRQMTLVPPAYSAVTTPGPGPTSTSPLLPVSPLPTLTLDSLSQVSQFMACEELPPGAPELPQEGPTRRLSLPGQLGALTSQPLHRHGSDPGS
row,Structure (SMILES),"hERG current change (%, negative = inhibition) at 10uM"
1,CNCCCNC(=O)c1ccc(/C=N/O)nc1,16%
2,Cc1cccc(OCC(=O)N2CCN(Cc3cccnc3)CC2)c1.O=C(O)C(=O)O,-3.95%
3,CCN(CC)CCN(C(=O)c1cc(Cl)sc1Cl)c1nc2cc3c(cc2s1)OCO3.Cl,-24.7%
4,Cn1ncc2c(N3CCOCC3)ncnc21,7.07%
5,CCCn1c(C)cc(C(=O)COC(=O)c2c(C)nn(-c3ccccc3)c2C)c1C,-2.09%
6,CSCCC(NC(=O)COc1ccccc1)C(=O)N1CCN(c2ccccc2Cl)CC1 (centres unmarked),-40.2%
7,CCOC(=O)C1=C(C)NC(SC(C)=O)=NC1c1ccc(OC(C)=O)c(OC)c1 (centres unmarked),-9.09%
8,O=C(CNc1n[nH]c(=O)[nH]c1=O)N/N=C/C=C/c1ccccc1,5.51%
9,COc1ccc(C2C(C#N)=C(N)OC3=C2C(=O)CC(C)(C)C3)cc1Cn1nc(C)c([N+](=O)[O-])c1C (centres unmarked),-50.6%
10,CSc1ccc(NC(=O)NCCCN2CCC(Cc3ccccc3)CC2)cc1,-75.9%
11,CCOC(=O)c1ccc(N2CN(C3CCCCC3)CNC2=S)cc1,27.7%
12,C=CCC(C)(NCc1ccccc1)c1ccc(C)cc1.Cl (centres unmarked),-9.55%
13,O=c1oc2ccccc2n1Cc1ccccc1,21.2%
14,COc1cc(C(=O)NNC(=O)c2cc(=O)[nH]c3ccccc23)cc(OC)c1OC,11.2%
15,CCn1c(SCC(=O)NCCc2ccc(Cl)cc2)nnc1-c1cccs1,-75.8%
16,CCn1c(Cc2ccccc2)nnc1SCC(=O)OC(C)C,0.117%
17,Clc1ccc(Oc2ccccc2)c2ncccc12,2.77%
18,Cc1cc(C(=O)CN2C(=O)C3CC=CCC3C2=O)c(C)n1-c1ccccc1 (centres unmarked),-2.05%
19,Nc1nonc1-c1noc(N2CCOCC2)n1,13.2%

row,Structure (SMILES),"hERG current change (%, negative = inhibition) at 10uM"
1,O=C(CNS(=O)(=O)c1ccc(Br)s1)N1CCC(N2CCCCC2)CC1,-49.5%
2,COC(=O)Cn1cc(/C=C/[N+](=O)[O-])c2ccccc21,0.0278%
3,COc1cccc(CN2CCNCC2)c1.Cl,16%
4,O=C(Nc1cccc(S(=O)(=O)N2CCOCC2)c1)C1CCN(S(=O)(=O)c2ccccc2)CC1,-23.9%
5,C#CCOCCOCCOCCNc1nc(N2CCN(C(=O)CCCCCCCCCCNC(=O)[C@@H](CCSC)n3cc(CCO)nn3)CC2)nc(N2CCN(C(=O)CCCCCCCCCCNC(=O)[C@H](CCSC)n3cc(CCO)nn3)CC2)n1,7.74%
6,COc1cc2ccccc2cc1C(=O)Nc1ccc(Cl)cn1,35.1%
7,CS(=O)(=O)N1CCN(C(=O)NC2CCCCC2)CC1,14.3%
8,CNc1[nH]c(=O)[nH]c(=O)c1N=Nc1cc(Cl)ccc1Cl,20.6%
9,COc1cnc(-c2ccccc2)[nH]c1=O,9.27%
10,C=CCOc1c(CNn2cn[nH]c2=S)cccc1OC,10.4%
11,O=C(CN(C(=O)CNC(=O)c1ccco1)c1ccc2c(c1)OCCO2)NC1CCCCC1,27.1%
12,CC(C)C(=O)N/N=C/c1ccc(OCc2ccccc2)cc1,17.8%
13,CCCNc1c(NC(C)=O)c(=O)oc2ccccc12,6.92%
14,O=c1cc(CN2CCN(C/C=C/c3ccccc3)CC2)c2cc(O)ccc2o1,-77.5%
15,COc1ccc(Cc2nnc(SCC(=O)Nc3ccccc3)[nH]c2=O)cc1,2.14%
16,CC(C)Oc1cccc(-c2cc(C(=O)NC(=S)N(C)c3ccccc3C(=O)O)c3ccccc3n2)c1,-13%
17,Cc1nnc(SCC(=O)Nc2nsc(-c3ccc(C(C)(C)C)cc3)n2)s1,-20.5%
18,Cc1ccn2c(CNCCn3cccn3)c(C(=O)N3CCCCCC3)nc2c1,-10.5%
19,O=C(CCN1C(=O)c2ccccc2C1=O)Nc1sc2c(c1C(=O)NCc1ccco1)CCCC2,-13.2%

row,Structure (SMILES),"hERG current change (%, negative = inhibition) at 10uM"
1,COc1ccc(S(=O)(=O)NCc2ccc(C(=O)N3CCN(Cc4ccccc4)CC3)cc2)cc1,-12.9%
2,Cc1c(-c2cc[n+]([O-])cc2)oc2ccc(Br)cc2c1=O,-54.2%
3,O=C(CCC1CCCN(C(=O)CCN2CCCCC2=O)C1)NCc1ccccc1F (centres unmarked),-4.64%
4,O=C(CSc1ccc(-c2ccco2)nn1)Nc1ccc(F)cc1,-68.5%
5,COC(CNC(=O)c1cccc(-n2c(=S)[nH]c3cc(Cl)ccc3c2=O)c1)OC,17.2%
6,COCCCNC(=O)CN1C(=O)CSc2ncccc21,1.13%
7,Cc1oc(-c2ccccc2F)nc1CS(=O)(=O)CC(=O)NCCCN1CC(C)CC(C)C1 (centres unmarked),-17.8%
8,Cc1cccc(NC(=S)N(c2ccccc2)C(C)C)c1C,7.95%
9,CCC(C(=O)NCCc1ccc(S(N)(=O)=O)cc1)c1ccccc1 (centres unmarked),-1.24%
10,CCN(CC)C(=O)Cn1cc(C(=O)C(=O)NCCCN2CCCCC2)c2ccccc21,13.1%
11,Cc1ccc2c(c1)C1CN(C)CCC1N2C(=S)Nc1cccnc1 (centres unmarked),-14%
12,O=C(c1ccc2c(=O)n(Cc3ccccc3Cl)c(=S)[nH]c2c1)N1CCCC1,4.9%
13,O=C(Nc1ccncc1)c1ccc2c(c1)OCCO2,11.8%
14,Cn1cnc2cc(NC(=O)COc3ccccc3)ccc21,23.8%
15,CCn1c2ccccc2c2cc(CNCCCN3CCOCC3)ccc21.Cl,-4.87%
16,CC(=O)Nc1ccc(S(=O)(=O)Nc2nc3ccccc3nc2Nc2ccc3ccccc3c2)cc1,12.8%
17,Cc1ccc(C(C)C)c(OCC(=O)N/N=C/c2cccn2C)c1,3.2%
18,Cc1ccc(C(=O)OCC(=O)Nc2ccccc2Cl)c(O)c1,7.83%
